Data published in PubChem BioAssay (NCI).
Several values for one entry are separate records, joined by “and”; a condition that tells them apart may be missing. Equal values may be shown once.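 Following 48 hours of exposure in 96-well plates, responses at five concentrations were used to interpolate endpoints linearly. GI50 = concentration required for 50% inhibition of growth. Definition used: TGI = concentration required for complete inhibition of growth.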

These compounds were tested on NCI-H322M lung (assay: DTP human tumour cell line panel, 48 h).

Compound | TGI | GI50
C=CCC1(OC(C)=O)C2OC(=O)C1(O)OCC2O (stereo not given) | > 100 µM | –
O=C(N/C(=C/c1ccc(Cl)cc1Cl)c1nc2ccccc2s1)c1ccccc1 | 33.7 µM | –
COc1cccc2c1C(=O)c1c(O)c3c(c(O)c1C2=O)CC(O)(C(O)CO)CC3OC1CC(N2CCOCC2)C(O)C(C)O1 (stereo not given) | 0.0272 µM and 0.0678 µM | 0.0146 µM
CCN(CC)CCOc1ccc(CCc2cc(OC)c(OC)c(OC)c2)cc1 | > 100 µM | –
O=c1ccn([C@@H]2C[C@@H]2CO)c(=O)[nH]1 | > 100 µM | –
Cc1cc(NCCN(C(C)C)C(C)C)nc(/N=C(\N)Nc2ccc(Cl)c(C(F)(F)F)c2)n1 | 3.87 µM | 1.33 µM
O=c1cc(-c2ccccc2F)[nH]c2ccc(N3CCCC3)cc12 | > 100 µM | 0.077 µM
Clc1cc(Cl)cc(C=NC23CC4CC(CC(C4)C2)C3)c1 | > 10 µM | –
O=[N+]([O-])c1ccc2c(c1)Cc1cc(N=Cc3ccc4c(c3)OCO4)ccc1-2 | > 100 µM | –
CC1CC2OC(=O)C(C)C2CC2(C)C(OC3OC(CO)C(O)C(O)C3O)OCCC12 (stereo not given) | > 100 µM | –
C=CCc1cccc2cc(C(=O)Nc3ccccc3)c(=N)oc12 | 31.8 µM | –
COc1ccc(-n2c(=O)[nH]n(C(C)=O)c2=O)cc1 | > 100 µM | –
COc1cccc(-n2nc(C)c3c(N/N=C(\C)c4ccncc4)ncnc32)c1 | > 25 µM | > 25 µM
CC(=O)NNc1nc(C)c(C(=O)/C=C/c2ccccc2Cl)s1 | > 100 µM | –
O=C(CC(=O)C1=CNc2ccccc2S1)C(=O)Nc1ccc(Cl)cc1 | > 50 µM | –
C=C1/C(=C\C=C2/CCC[C@]3(C)[C@@H]([C@H](C)CCCC(C)(C)O)CC[C@@H]23)C[C@@H](OC(=O)CBr)C[C@@H]1O | 28.3 µM | 14.8 µM
Nc1cccc(/C=C/C(=O)N2CCN(CCOC(c3ccccc3)c3ccccc3)CC2)c1 | 30.1 µM | –
CCOC(=O)/C=C/n1c2ccccc2c(=O)c2ccccc21 | > 100 µM | –
CN(C)CCCNc1ccc([N+](=O)[O-])c2nc3ccccc3c(N)c12 | 1.89 µM | –
CC(=O)OCC1OC(c2nc3ccccc3s2)=CC(OC(C)=O)C1OC(C)=O (stereo not given) | > 100 µM | –
NC(=O)c1c(NC(=O)c2ccccn2)sc2c1CCC(=O)C2 | > 100 µM | > 100 µM
COc1ccc(CC(=O)N2CCC3(C)CC(=O)CC=C23)cc1OC (stereo not given) | > 100 µM | –
O=C(Cn1c(=O)c(-c2ccccc2)nc2ccccc21)Nc1ccc(F)cc1 | > 100 µM | 98.8 µM
CN(C)CCNC(=O)c1cc([N+](=O)[O-])cc2c1Oc1ccccc1O2 | > 100 µM | –

Compound | TGI | GI50
Cc1ccc([N+](=O)[O-])cc1NC(=O)/C(=N/NC(=S)NN)C1SC(=S)NC1=O (stereo not given) | > 100 µM | –
O=S(=O)(O)C(=Nc1cccc(Cc2ccccc2)c1)Nc1cccc(Cc2ccccc2)c1 | 32.6 µM | –
Clc1cc2c(cc1Cl)CC(NCCN1CCCC1)CC2 (stereo not given) | 29.6 µM | –
OCC(O)C(Cl)CCl (stereo not given) | > 100 µM | –
CCOC(=O)c1cn2c(n1)sc1c(Cl)c(Cl)ccc12 | > 100 µM | –
CCOC(=O)c1c2c(n(Cc3ccc(Cl)cc3Cl)c1C)-c1nc[nH]c1C(=O)C2=O | 29.9 µM | 15.6 µM
CC(C)CCCC(C)[C@H]1CCC2[C@@H]3CCC4Nc5nocc5C[C@]4(C)C3CC[C@@]21C (stereo not given in full) | 92.4 µM | –
CCSc1n/c(=C\c2ccco2)c2nncn12 | > 100 µM | –
Cc1cc(NCCCCCCNc2cc(C)nc3cc(N(C)C)ccc23)c2ccc(N(C)C)cc2n1 | > 100 µM | –
N#Cc1c(-c2ccc([N+](=O)[O-])cc2)c(C#N)c(=O)n(NS(=O)(=O)c2ccccc2)c1-c1ccccc1 | > 100 µM | –
CCC1CN2C(=N1)c1ccccc1-c1cc(Cl)ccc12 (stereo not given) | 40.2 µM | 5.25 µM
COc1ccc(-n2cnc3c2NC(C)(C)N=C3C(N)=O)c(OC)c1 | > 100 µM | –
O=C1C(N2CC2)=C(N2CC2)C(=O)C(N2CC2)=C1N1CC1 | 3.56 µM | 0.326 µM
O=C(Nc1cccc(-n2cc(-c3ccncc3)c(-c3ccc(Cl)c(O)c3)n2)c1)c1ccc(N2CCOCC2)c(C(F)(F)F)c1 | > 50 µM | > 50 µM
O=C(OCN1C(=O)C2C3C=CC(C2C1=O)C1C2C(=O)N(COC(=O)C4CCCN4)C(=O)C2C31)C1CCCN1 (stereo not given) | > 100 µM | –
CCOC(=O)C1=NN(c2ccc(C)cc2)C2=CC(C)=NN(C)C(=S)N21 | > 100 µM | –
COC(=O)c1ccccc1OCc1cc(=O)oc2ccc(C)cc12 | > 100 µM | –
CCCCC[C@H]1C/C=C2/C(=O)C=C[C@@H]2C/C=C\CCCC(=O)O[C@@H](CCCCC)C/C=C2/C(=O)C=C[C@@H]2C/C=C\CCCC(=O)O1 | 1.54 µM | 0.57 µM
O=c1cccccc1[O-].O=c1cccccc1[O-].[O]=[U+2]=[O] | 96.9 µM | –
COc1ccc(/C=C/C(=O)c2ccc(O)c(CN3CCN(c4cc5c(cc4F)c(=O)c(C(=O)O)cn5C4CC4)CC3)c2)cc1 | 74.7 µM | 1.47 µM
CCC1CN(C(=O)c2ccccc2)C(Cc2c[nH]c3ccccc23)C(=O)C1CC(=O)OC (stereo not given) | > 100 µM | –
COC1=CC(c2ccc[nH]2)=N/C1=C\c1[nH]c(C)c(C(=O)CCCCC(=O)NC(C)(C)C)c1C | 19.6 µM | 4.23 µM
CCN(CC(=O)O)C(=O)c1cccnc1 | > 100 µM | –
CCN(Cc1ccc(F)cc1)c1ccc(CO)c(F)c1 | > 86.1 µM | 23.5 µM

Compound | TGI | GI50
COc1ccc(-c2nc(-c3ccccc3)c(-c3ccccc3)[nH]2)cc1OC1CCCC1 | > 100 µM | > 100 µM
O=C(c1cccs1)N(C(=S)OC12CC3CC(CC(C3)C1)C2)c1ccccc1 | > 100 µM | –
Cc1cc(O)c(C2=NN(c3ccc(S(N)(=O)=O)cc3)C(c3ccccc3Cl)C2)cc1Cl (stereo not given) | 5.07 µM | 2.19 µM
CC(=O)Oc1ccc(-c2cc3ccccc3oc2=O)cc1 | > 100 µM | –
N#CCCN(CCCN(CCCN(C(=O)Nc1ccccc1)c1ccccc1)C(=O)Nc1ccccc1)C(=O)Nc1ccccc1 | > 100 µM | > 100 µM
C[C@]12CCC(=O)C=C1CC[C@@H]1C2CC[C@]2(C)Nc3c(cnn3-c3ccccc3)CC12 (stereo not given in full) | > 100 µM | –
COC(=O)C1CN=CN1CCc1ccccc1 (stereo not given) | > 100 µM | –
Brc1cc(CCOC2CCCCO2)c(-c2sccc2CCOC2CCCCO2)s1 (stereo not given) | > 100 µM | –
CC[C@@H]1CC[C@@H]2[C@H](CC[C@]3(C)[C@@H](OS(=O)(=O)c4ccc(C)cc4)CC[C@@H]23)[C@H]1COS(=O)(=O)c1ccc(C)cc1 | > 100 µM | –
CC(C)OCC1CC(CC(=O)Nc2nncs2)C(=O)O1 (stereo not given) | > 100 µM | –
COc1ccc(-c2nc(/C=N/Nc3cc(C)nc4ccc(Cl)cc34)c(C)o2)cc1 | 3.07 µM | 1.68 µM
Cc1ccc(SSc2ccc(C)cc2C(=O)O)c(C(=O)O)c1 | > 100 µM | –
Cc1cc(N(CCC#N)CCC#N)ccc1/C(N=Nc1ccc(C(=O)O)cc1)=N\NC(=O)c1cc(Cl)ccc1O | 95 µM | –
COc1cc2ccccc2oc1=O | > 100 µM | –
Cc1ccc(C(CC(=O)c2ccccc2)C2C(=O)NC(=O)NC2=O)cc1 (stereo not given) | > 100 µM | > 100 µM
CCn1cnc(C[C@H](NC(=O)[C@@H](NC(=O)Nc2cc(C(F)(F)F)cc(C(F)(F)F)c2)C(C)C)C(=O)OC)c1 | 5.95 µM | 2.37 µM
CN[C@H](C#Cc1c(F)ccc2c1/C(=C/c1[nH]ccc1OC)C(=O)N2)CO | 5.53 µM | 0.659 µM
CC(=O)C(=Cc1ccc(C=C(C(C)=O)C(C)=O)cc1)C(C)=O | 8.37 µM | –
c1cc2n(n1)CCN2 | > 10000 µM | –
CCC12CCCN(Cc3ccccc3)C1c1c(n(C)c3ccccc13)C(C(=O)OC)C2 (stereo not given) | > 239 µM | –
O=C1Nc2nc3ccccc3n2N=C2CCCC12 (stereo not given) | > 100 µM | –
COC(=O)[C@@]12OC[C@]34[C@H]([C@@H](O)[C@@H]1O)[C@@]1(C)[C@H](O)C(=O)C=C(C)[C@@H]1C[C@H]3OC(=O)C(OC(C)=O)[C@@H]24 (stereo not given in full) | 0.623 µM | 0.14 µM
COc1cc2c(cc1OC)C(=O)/C(=C/c1ccc(Cl)cc1)CC2 | > 10 µM | –
CN(C)CCN(C)c1ccc2c(=O)n(CCN(C)C)c(=O)n3c4ccccc4c(=O)c1c23 | 3.82 µM | –

Compound | TGI | GI50
COc1ccc(C(=O)/C=C/c2cccc([N+](=O)[O-])c2)c(OC)c1 | > 50 µM | 1.9 µM
C1COCCN1.C1COCCN1.NC1CCCCC1N.[Cl-].[Pt+2] (stereo not given) | > 100 µM | > 100 µM
COc1cc(OC)nc(-n2c(N)c(C#N)c3ccc([N+](=O)[O-])cc3c2=O)n1 | > 100 µM | –
CN(C)C(=S)/N=c1\ssc(=S)n1Cc1cccnc1 | > 100 µM | –
COc1cc2c(ccc3c4cc(OC)c(OC)cc4c[n+](C)c23)cc1O | > 75 µM | –
CCOC(=O)C(NC(=O)c1ccco1)(Nc1nc2ccc(OCC)cc2s1)C(F)(F)F (stereo not given) | > 100 µM | –
CC1CC[C@@]2(OC1)OC1C[C@H]3[C@@H]4CC=C5CC(OC6OC(CO)C(OC7OC(CO)C(O)C(OC8OCC(O)C(O)C8O)C7OC7OC(CO)C(O)C(O)C7O)C(O)C6O)CCC5(C)[C@H]4CCC3(C)C1[C@@H]2C (stereo not given in full) | 8.61 µM | –
CC(C)(C)OC(=O)N1CCC(C(=O)O)CC1 | > 100 µM | –
COC(=O)c1sc(=S)sc1SCc1ccc(CSc2sc(=S)sc2C(=O)OC)cc1 | > 100 µM | –
O=C(CCCN1CCC2(CC1)CC(=O)N(N1CCCCCC1)C2=O)c1ccccc1 | > 100 µM | –
CNCCCn1c2c(c3ccc([N+](=O)[O-])cc3c1=O)C(=O)c1cc(OC)cnc1-2 | 1.65 µM | 0.162 µM
CCn1c(SCC(=O)NNC(=S)Nc2ccc([N+](=O)[O-])cc2)nc2ccccc2c1=O | > 100 µM | –
CC(=O)C1=C(C)N(c2ccc(C)cc2)C2(O)C=CC(=O)C3C(=O)N(c4ccccc4)C(=O)C132 (stereo not given) | 40 µM | –
C[C@]12CCc3sc(NCCc4ccccc4)nc3C1=CC[C@@H]1[C@@H]2CC[C@]2(C)C(=O)CC[C@@H]12 | > 100 µM | 96.9 µM
COc1ccc2c(=O)cc(-c3ccncc3)oc2c1OC | > 100 µM | –
COc1ccc2c(c1)nnn1c3ncccc3c(N=O)c21 | 46.9 µM and 38.3 µM | 9.67 µM and 7.38 µM
N.N.N.N.N.[Cl-].[Co+3].c1ccc(-c2nn[n-]n2)cc1 | > 100 µM | > 100 µM
OCC1C(/C=C/c2ccoc2)ON2CCCC12 (stereo not given) | > 100 µM | –
Cc1cc(Cl)ccc1Nc1nc(C(F)(F)F)ccc1C(=O)N/N=C/c1ccc(Cl)cc1 | 6.16 µM | 0.8 µM
C[C@H](NC(=O)c1ccc(CNC(=O)/C=C/c2cccc(Oc3ccccc3)c2)cc1)c1ccccc1 | > 100 µM | –
COc1cc([C@@H]2c3cc4c(cc3[C@@H](OC(=O)c3ccc(N)cc3)C3COC(=O)[C@@H]32)OCO4)cc(OC)c1O (stereo not given in full) | > 95 µM | –
Nc1nc(N)c2nc(CNc3ccc(C(=O)NC(CC(=O)O)C(=O)O)cc3)cnc2n1 (stereo not given) | > 45.3 µM | 0.763 µM
